Experimental data from US20220145343A1 (priority 2019, published 2022).
At least one read-out could not be matched to a standard name with certainty.

What was measured:
[1] = target: NmSiaDW α2-6-sialyltransferase activity (Neisseria meningitidis, UniProt O33390); experiment: Enzyme kinetics by varying CMP-Neu5Ac concentrations, fixed acceptor G2 or G10; type: biochemical; settings: apparent, fixed acceptor 1 mM (row names the acceptor)
Method: Enzyme kinetics by varying donor concentrations. For varying UDP-Gal concentrations, reactions were performed in duplicate at 30° C. for 10 minutes in the presence of MES buffer (100 mM, pH 6.5), MgCl2 (10 mM), S3 or S9 (2 mM), UDP-Gal (0.1, 0.2, 0.5, 1.0, 2.0, 5.0 and 10.0 mM), and NmSiaDW (0.025 μM for S3, 0.031 μM for S9) in a total volume of 20 μL. For varying CMP-Neu5Ac concentrations, reactions were performed in duplicate at 30° C. for 10 minutes in the presence of Tris-HCl buffer (100 mM, pH 8.0), MgCl2 (10 mM), G2 or G10 (1 mM), CMP-Neu5Ac (0.2, 0.5, 1.0, 2.0, 5.0 and 10.0 mM), and NmSiaDW (0.025 μM for G2, 0.062 μM for G10) in a total volume of 20 μL. Data analyses were carried out as described above.
NmSiaDW kinetics studies where the concentrations of the donors were also conducted, using a fixed concentration of a representative short or long acceptor substrate. S3 or S9 was used as the acceptor substrate for varying the concentration of UDP-Gal and G2 or G10 was used as the acceptor substrate for varying the concentration of CMP-Neu5Ac. […] The averages of nonlinear regression standard errors from technical duplicates are shown.

[2] = target: NmSiaDW sialyltransferase activity (Neisseria meningitidis, UniProt O33390); settings: apparent; varying acceptor, 10 mM CMP-Neu5Ac, pH 8.0, 30° C.
[3] = target: NmSiaDW galactosyltransferase activity (Neisseria meningitidis, UniProt O33390); settings: apparent; varying acceptor, 2 mM UDP-Gal, pH 6.5, 30° C.
[4] = target: NmSiaDW α1-4-galactosyltransferase activity (Neisseria meningitidis, UniProt O33390); type: biochemical; settings: apparent; varying UDP-Gal, fixed acceptor 2 mM (row names the acceptor)
Chain of NmSiaDW α1-4-galactosyltransferase activity (O33390 1-1037): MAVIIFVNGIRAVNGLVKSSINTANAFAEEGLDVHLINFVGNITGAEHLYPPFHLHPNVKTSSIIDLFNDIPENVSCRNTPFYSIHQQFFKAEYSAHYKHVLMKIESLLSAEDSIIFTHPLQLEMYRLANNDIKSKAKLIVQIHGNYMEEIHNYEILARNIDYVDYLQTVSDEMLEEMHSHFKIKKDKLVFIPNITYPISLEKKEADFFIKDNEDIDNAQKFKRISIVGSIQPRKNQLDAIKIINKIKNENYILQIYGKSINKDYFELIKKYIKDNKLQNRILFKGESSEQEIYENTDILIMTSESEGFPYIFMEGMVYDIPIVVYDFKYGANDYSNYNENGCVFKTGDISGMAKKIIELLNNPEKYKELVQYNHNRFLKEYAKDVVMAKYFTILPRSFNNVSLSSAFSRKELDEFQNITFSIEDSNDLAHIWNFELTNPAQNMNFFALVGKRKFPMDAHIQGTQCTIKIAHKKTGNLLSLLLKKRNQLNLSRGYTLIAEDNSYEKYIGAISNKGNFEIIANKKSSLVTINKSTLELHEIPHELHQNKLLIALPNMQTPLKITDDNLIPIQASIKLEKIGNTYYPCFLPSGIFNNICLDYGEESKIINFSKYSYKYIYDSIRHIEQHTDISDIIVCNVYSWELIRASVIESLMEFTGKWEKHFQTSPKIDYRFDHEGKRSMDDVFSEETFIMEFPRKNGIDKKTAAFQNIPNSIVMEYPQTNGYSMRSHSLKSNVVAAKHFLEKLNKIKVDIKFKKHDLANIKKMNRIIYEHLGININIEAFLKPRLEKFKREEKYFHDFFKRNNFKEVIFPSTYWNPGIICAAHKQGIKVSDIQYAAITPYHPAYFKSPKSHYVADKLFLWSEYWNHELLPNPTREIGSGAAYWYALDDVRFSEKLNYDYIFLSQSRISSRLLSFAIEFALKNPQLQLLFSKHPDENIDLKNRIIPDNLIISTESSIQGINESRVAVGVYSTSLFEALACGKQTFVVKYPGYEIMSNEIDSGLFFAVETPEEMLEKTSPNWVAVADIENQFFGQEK

Chain of NmSiaDW galactosyltransferase activity (O33390 1-1037): as above
Chain of NmSiaDW sialyltransferase activity (O33390 1-1037): as above
Chain of NmSiaDW α2-6-sialyltransferase activity (O33390 1-1037): as above

| SMILES | kcat/KM [2] [M⁻¹ s⁻¹] | kcat/KM [3] [M⁻¹ s⁻¹] | further results |
| --- | --- | --- | --- |
| CC(=O)N[C@H]1[C@H]([C@H](O)[C@H](O)CO)O[C@@](OCCCNC(=O)OCc2ccccc2)(C(=O)O)C[C@@H]1O[C@H]1O[C@H](CO)[C@H](O)[C@H](O)[C@H]1O [G2, Galα1-4Neu5AcαProNHCbz] | – | – | kcat/KM [1]: 26000 M⁻¹ s⁻¹ |
| CC(=O)N[C@H]1[C@H]([C@H](O)[C@H](O)CO)O[C@@](OC[C@H]2O[C@H](O[C@H]3C[C@](OCCCNC(=O)OCc4ccccc4)(C(=O)O)O[C@@H]([C@H](O)[C@H](O)CO)[C@@H]3NC(C)=O)[C@H](O)[C@@H](O)[C@H]2O)(C(=O)O)C[C@@H]1O[C@H]1O[C@H](CO)[C@H](O)[C@H](O)[C@H]1O [G4, Galα1-4Neu5Acα2-6Galα1-4Neu5AcαProNHCbz] | 97000 | – | – |
| CC(=O)N[C@H]1[C@H]([C@H](O)[C@H](O)CO)O[C@@](OC[C@H]2O[C@H](O[C@H]3C[C@](OC[C@H]4O[C@H](O[C@H]5C[C@](OCCCNC(=O)OCc6ccccc6)(C(=O)O)O[C@@H]([C@H](O)[C@H](O)CO)[C@@H]5NC(C)=O)[C@H](O)[C@@H](O)[C@H]4O)(C(=O)O)O[C@@H]([C@H](O)[C@H](O)CO)[C@@H]3NC(C)=O)[C@H](O)[C@@H](O)[C@H]2O)(C(=O)O)C[C@@H]1O[C@H]1O[C@H](CO)[C@H](O)[C@H](O)[C@H]1O [G6, Galα1(-4Neu5Acα2-6Galα1)2-4Neu5AcαProNHCbz] | 53000 | – | – |
| CC(=O)N[C@H]1[C@H]([C@H](O)[C@H](O)CO)O[C@@](OC[C@H]2O[C@H](O[C@H]3C[C@](OC[C@H]4O[C@H](O[C@H]5C[C@](OC[C@H]6O[C@H](O[C@H]7C[C@](OCCCNC(=O)OCc8ccccc8)(C(=O)O)O[C@@H]([C@H](O)[C@H](O)CO)[C@@H]7NC(C)=O)[C@H](O)[C@@H](O)[C@H]6O)(C(=O)O)O[C@@H]([C@H](O)[C@H](O)CO)[C@@H]5NC(C)=O)[C@H](O)[C@@H](O)[C@H]4O)(C(=O)O)O[C@@H]([C@H](O)[C@H](O)CO)[C@@H]3NC(C)=O)[C@H](O)[C@@H](O)[C@H]2O)(C(=O)O)C[C@@H]1O[C@H]1O[C@H](CO)[C@H](O)[C@H](O)[C@H]1O [G8, Galα1(-4Neu5Acα2-6Galα1)3-4Neu5AcαProNHCbz] | 46000 | – | – |
| CC(=O)N[C@H]1[C@H]([C@H](O)[C@H](O)CO)O[C@@](OC[C@H]2O[C@H](O[C@H]3C[C@](OC[C@H]4O[C@H](O[C@H]5C[C@](OC[C@H]6O[C@H](O[C@H]7C[C@](OC[C@H]8O[C@H](O[C@H]9C[C@](OCCCNC(=O)OCc%10ccccc%10)(C(=O)O)O[C@@H]([C@H](O)[C@H](O)CO)[C@@H]9NC(C)=O)[C@H](O)[C@@H](O)[C@H]8O)(C(=O)O)O[C@@H]([C@H](O)[C@H](O)CO)[C@@H]7NC(C)=O)[C@H](O)[C@@H](O)[C@H]6O)(C(=O)O)O[C@@H]([C@H](O)[C@H](O)CO)[C@@H]5NC(C)=O)[C@H](O)[C@@H](O)[C@H]4O)(C(=O)O)O[C@@H]([C@H](O)[C@H](O)CO)[C@@H]3NC(C)=O)[C@H](O)[C@@H](O)[C@H]2O)(C(=O)O)C[C@@H]1O[C@H]1O[C@H](CO)[C@H](O)[C@H](O)[C@H]1O [G10, Galα1(-4Neu5Acα2-6Galα1)4-4Neu5AcαProNHCbz] | 55000 | – | kcat/KM [1]: 16000 M⁻¹ s⁻¹ |
| CC(=O)N[C@H]1[C@H]([C@H](O)[C@H](O)CO)O[C@@](OCCCNC(=O)OCc2ccccc2)(C(=O)O)C[C@@H]1O [S1, 2-O—(N-Benzyloxycarbonyl)aminopropyl α-N-acetylneuraminide] | – | 47 | – |
| CC(=O)N[C@H]1[C@H]([C@H](O)[C@H](O)CO)O[C@@](OCCCNC(=O)OCc2ccccc2)(C(=O)O)C[C@@H]1O[C@H]1O[C@H](CO[C@]2(C(=O)O)C[C@H](O)[C@@H](NC(C)=O)[C@H]([C@H](O)[C@H](O)CO)O2)[C@H](O)[C@H](O)[C@H]1O [S3, Neu5Acα2-6Galα1-4Neu5AcαProNHCbz] | – | – | kcat/KM [4]: 53000 M⁻¹ s⁻¹ |
| CC(=O)N[C@H]1[C@H]([C@H](O)[C@H](O)CO)O[C@@](OCCCNC(=O)OCc2ccccc2)(C(=O)O)C[C@@H]1O[C@H]1O[C@H](CO[C@]2(C(=O)O)C[C@H](O[C@H]3O[C@H](CO[C@]4(C(=O)O)C[C@H](O[C@H]5O[C@H](CO[C@]6(C(=O)O)C[C@H](O)[C@@H](NC(C)=O)[C@H]([C@H](O)[C@H](O)CO)O6)[C@H](O)[C@H](O)[C@H]5O)[C@@H](NC(C)=O)[C@H]([C@H](O)[C@H](O)CO)O4)[C@H](O)[C@H](O)[C@H]3O)[C@@H](NC(C)=O)[C@H]([C@H](O)[C@H](O)CO)O2)[C@H](O)[C@H](O)[C@H]1O [S7, Neu5Acα2(-6Galα1-4Neu5Acα2)3-ProNHCbz] | – | 83000 | – |
| CC(=O)N[C@H]1[C@H]([C@H](O)[C@H](O)CO)O[C@@](OCCCNC(=O)OCc2ccccc2)(C(=O)O)C[C@@H]1O[C@H]1O[C@H](CO[C@]2(C(=O)O)C[C@H](O[C@H]3O[C@H](CO[C@]4(C(=O)O)C[C@H](O[C@H]5O[C@H](CO[C@]6(C(=O)O)C[C@H](O[C@H]7O[C@H](CO[C@]8(C(=O)O)C[C@H](O)[C@@H](NC(C)=O)[C@H]([C@H](O)[C@H](O)CO)O8)[C@H](O)[C@H](O)[C@H]7O)[C@@H](NC(C)=O)[C@H]([C@H](O)[C@H](O)CO)O6)[C@H](O)[C@H](O)[C@H]5O)[C@@H](NC(C)=O)[C@H]([C@H](O)[C@H](O)CO)O4)[C@H](O)[C@H](O)[C@H]3O)[C@@H](NC(C)=O)[C@H]([C@H](O)[C@H](O)CO)O2)[C@H](O)[C@H](O)[C@H]1O [S9, Neu5Acα2(-6Galα1-4Neu5Acα2)4-ProNHCbz] | – | >100000 | kcat/KM [4]: 60000 M⁻¹ s⁻¹ |
